# Source: paper PMC5515408
# The other results are listed elsewhere or left out. At the low end of the ranking the order means little.
# Molecular target: MAX:MAX (p21) (UniProt P61244-2)
# Assay: protein-binding microarray (anti-MAX antibody)
# Conditions: PBM: 15 mM Tris-HCl pH 7.5, 100 mM KCl, 0.075% NP40, 7.5 mM beta-mercaptoethanol, 375 ng/ul BSA, 8 ng/ul poly(dA-dT):(dA-dT), 550 ng complex, 60 min, room …; high values mean tight binding; double strand, one strand shown; sequences stand for … in CCGGC…TTAATAGCTAAGATTACTATATCGACG
row,Sequence,binding signal (log2 normalized fluorescence)
1,TGTCACGTTGTA,3.16
2,TGACACGTGAGA,3.29
3,TGACCAGATGTA,0.615
4,TGAGATGCCGTA,-0.54
5,TAACACCTGGCA,2.87
6,TGATGTGCGGTA,0.443
7,TGCGGCGTGGTA,2.97
8,TGAACAAGAGTA,-0.616
9,TGAGGCGTCGTA,-0.641
10,TGAAAATGTGTA,1.14
11,TGATTGGGTGTA,-0.803
12,TGAGCCATAGTA,-1.04
13,TGACGCCCGGTA,-0.0843
14,TGACTTGATGTA,-0.32
15,TGAAATGGTGTA,-0.154
16,TGAGTGGTCGTA,0.559
17,TGAGATATAGTA,-0.876
18,TGATCGGACGTA,-0.968
19,TGACATAACGTA,0.0875
20,TGAAAGAGAGTA,-0.838
21,TCACACGTGATA,3.31
22,TGAGTGGTAGTA,0.0367
23,TGAACATAAGTA,0.21

row,Sequence,binding signal (log2 normalized fluorescence)
1,TGAAGATTTGTA,-1.05
2,CGGCAAGTGGTA,1.17
3,TCACACTCGGTA,1.6
4,TGAAATAGCGTA,-0.767
5,TGAGTCAGCGTA,-0.508
6,TGATTGACTGTA,-0.701
7,TGACGGTCTGTA,-0.396
8,TGATACGAGGTG,-0.118
9,TGATTATAAGTA,-1.18
10,TGACACTTGTTA,0.48
11,TGAGCCCGTGTA,0.977
12,TGAACTAAGGTA,-0.746
13,TGATATTAAGTA,-1.18
14,TGAGTCGATGTA,-0.987
15,TGATGACGTGTA,0.657
16,TGAGTGCAGGTA,0.133
17,TGACCTTAGGTA,-0.553
18,TGAGTAGCTGTA,-1.01
19,TCACACGTAGGA,2.38
20,TAGTACGTGGTA,1.19
21,TGATAGCCGGTA,-0.991
22,TGAAGTCAAGTA,-0.736
23,ATAGCTAAGATT,-0.556

row,Sequence,binding signal (log2 normalized fluorescence)
1,TGACCCCCTGTA,0.861
2,CGACACGTGGGC,3.29
3,TGATGATCCGTA,-0.123
4,TGAGGACACGTA,0.341
5,TGATTGTCCGTA,-0.74
6,TGAAACTCGGTA,-0.697
7,TGACATTGAGTA,-0.354
8,TGATACCAGGTA,-0.589
9,TGAGTCGTTGTA,-0.979
10,TGACCTGATGTA,0.381
11,TGAACGGATGTA,-0.184
12,TGACTCCCTGTA,-0.355
13,GGAGAAGTGGTA,-0.423
14,CGGCACGTTGTA,3.21
15,TGATTGTACGTA,-0.688
16,TGATATTCAGTA,-0.946
17,TGATGATTAGTA,-0.556
18,TGAGCTACGGTA,-1.01
19,TGAATGGACGTA,0.398
20,TGACTGACCGTA,-0.313
21,TGAGTCTTTGTA,-1.22
22,TGATAACGTGTA,2.18
23,TGACCGAGGGTA,-0.167

row,Sequence,binding signal (log2 normalized fluorescence)
1,TGAGTTATGGTA,-0.847
2,TGACCCGTGTTA,2.22
3,TGACCCGTCGTA,-0.382
4,TGACCTAGCGTA,-0.52
5,AGTAGGGTTGAC,0.441
6,TGATGCCAGGTA,-0.0326
7,TGACATGCGGAA,2.74
8,TGAGAGTGTGTA,0.0581
9,TGAATTGCCGTA,-0.48
10,TGAAGGAACGTA,-0.721
11,TGAAAGGTCGTA,-0.323
12,TGATTGTGAGTA,-0.569
13,TGAACCTGTGTA,0.428
14,TGAGATTACGTA,-0.981
15,TGACACGTCGGA,1.39
16,TGAGGGAGAGTA,-0.748
17,TGAAGGCTTGTA,-0.674
18,TTTGACGTGGTA,0.867
19,TGAGGCCTTGTA,-0.802
20,TGAGAATTCGTA,-1.2
21,TGACATTGTGTA,0.726
22,TGATCAAACGTA,-0.623
23,TGACTCGTTGTA,0.601

row,Sequence,binding signal (log2 normalized fluorescence)
1,TGAGAGCACGTA,0.492
2,TGACCCTTGTTA,-0.524
3,ACTTACCTCCGG,0.0278
4,TGAAAAAACGTA,-0.383
5,TGAATCAATGTA,-0.461
6,TGACTCAACGTA,-0.0147
7,TGATCGGTTGTA,-1.02
8,TGAATTTCAGTA,-1.16
9,TGATTACTGGTA,-0.904
10,TGAGGAAAGGTA,-0.736
11,TGAAAAACCGTA,-0.672
12,TGATCCGACGTA,-0.987
13,TGACGACAAGTA,-0.466
14,TCACCCGTGGTT,2.56
15,TGAGTGGAAGTA,-0.199
16,AGACACATGGGA,3.25
17,TGACCAACGGTA,-0.556
18,TGACGTATCGTA,-0.167
19,TGAGTCCTAGTA,-1.16
20,TGACCGGGGGTA,1.54
21,TGACAGGTTGCA,1.38
22,TATGACGTGGTA,1.58
23,TGAGATGATGTA,-0.509

row,Sequence,binding signal (log2 normalized fluorescence)
1,TGACCGCCAGTA,-0.256
2,TGAGACGAAGTA,-0.725
3,TGGGCCGTGGTA,0.312
4,TGAGTGCGGGTA,0.109
5,TCAAAGGCCTTA,-0.861
6,TGTCACGTGGCA,3.04
7,TGAACTCATGTA,1.71
8,TGATTGTCGGTA,-0.547
9,TGAGGGTCGGTA,-0.516
10,TGAGTGGTGGTA,0.505
11,TGAGTGGGTGTA,0.316
12,TGACGGTGAGTA,-0.348
13,TGAATCGAGGTA,-0.219
14,TGAGACCGCGTA,-0.394
15,AGCCACGTGGTA,3.13
16,TGAAAGGCTGTA,-0.2
17,TGACGGGGCGTA,0.428
18,TGAGAACCAGTA,-0.883
19,TGCCACGTGGTG,3.07
20,TGAATGAAAGTA,-0.531
21,TGAGGTCGCGTA,-0.675
22,TGAATCGAAGTA,-1.11
